Laboratory results from article PMC7071059, “Targeting Receptor Tyrosine Kinase VEGFR-2 in Hepatocellular Cancer: Rational Design, Synthesis and Biological Evaluation of 1,2-Disubstituted Benzimidazoles” (Molecules, 2020).

Molecular target: VEGFR-2 in the HepG2 cell line (Homo sapiens, UniProt P35968)
Experiment: In vitro cell-based VEGFR-2 inhibition, ELISA kit
Settings: HepG2 cells, 48 h; for % Inhibition of VEGFR-2 in HepG2 Cell Line: compound at its previously determined IC50 / 1/10 of IC50, relative to negative control; for Amount of VEGFR-2: mean ± S.E. of two experiments, DMSO control 185.20 ± 21.85

% Inhibition of VEGFR-2 in HepG2 Cell Line | Amount of VEGFR-2 | SMILES
– | 68.81 ± 8.14 ng/mL | COc1ccc(NC(=S)NNC(=O)Cn2c(C(C)C)nc3ccccc32)cc1 [Compound 24b, 2-(2-(2-Isopropyl-1H-benzo[d]imidazol-1-yl)acetyl)-N-(4-methoxyphenyl)hydrazine-1-carbothioamide]
1% | 183.00 ± 19.00 ng/mL | COc1cc(C=O)ccc1OCCOc1ccc(/C=N/NC(=O)Cn2c(C(C)C)nc3ccccc32)cc1OC [Compound 22a, (E)-N′-(4-(2-(4-Formyl-2-methoxyphenoxy)ethoxy)-3-methoxybenzylidene)-2-(2-isopropyl-1H-benzo[d]imidazol-1-yl)acetohydrazide]
64% | 66.00 ± 8.35 ng/mL | COc1cc(/C=N/NC(=O)Cn2c(C(C)C)nc3ccccc32)ccc1O [Compound 13g, (E)-N′-(4-Hydroxy-3-methoxybenzylidene)-2-(2-isopropyl-1H-benzo[d]imidazol-1-yl)acetohydrazide]
3% | 180.50 ± 21.00 ng/mL | C/C(=N\NC(=O)Cn1c(C(C)C)nc2ccccc21)c1ccc(Br)cc1 [Compound 14c, (E)-N′-(1-(4-Bromophenyl)ethylidene)-2-(2-isopropyl-1H-benzo[d]imidazol-1-yl)acetohydrazide]
4% | 177.10 ± 18.80 ng/mL | CCOC(=O)COc1ccc(/C=N/NC(=O)Cn2c(C(C)C)nc3ccccc32)cc1OC [Compound 19c, Ethyl-(E)-2-(4-((2-(2-(2-isopropyl-1H-benzo[d]imidazol-1-yl)acetyl)hydrazono)methyl)-2-methoxyphenoxy)acetate]
10% | 165.71 ± 18.20 ng/mL | CC(C)c1nc2ccccc2n1CC(=O)N/N=C/c1ccc(N(C)C)cc1 [Compound 13e, (E)-N′-(4-(Dimethylamino)benzylidene)-2-(2-isopropyl-1H-benzo[d]imidazol-1-yl)acetohydrazide]
78% | 39.90 ± 4.60 ng/mL | COc1ccc(/C=N/NC(=O)Cn2c(C(C)C)nc3ccccc32)cc1 [Compound 13d, (E)-2-(2-Isopropyl-1H-benzo[d]imidazol-1-yl)-N′-(4-methoxybenzylidene)acetohydrazide]
6.5% | 173.16 ± 19.66 ng/mL | COC(=O)COc1ccc(/C=N/NC(=O)Cn2c(C(C)C)nc3ccccc32)cc1OC [Compound 19a, Methyl-(E)-2-(4-((2-(2-(2-isopropyl-1H-benzo[d]imidazol-1-yl)acetyl)hydrazono)methyl)-2-methoxyphenoxy)acetate]
9% | 168.80 ± 16.21 ng/mL | COC(=O)COc1ccc(/C=N/NC(=O)Cn2c(-c3ccc(C)o3)nc3ccccc32)cc1OC [Compound 19b, Methyl-(E)-2-(2-methoxy-4-((2-(2-(2-(5-methylfuran-2-yl)-1H-benzo[d]imidazol-1-yl)acetyl)hydrazono)methyl)phenoxy)acetate]
80% | 37.11 ± 3.00 ng/mL | CC(C)c1nc2ccccc2n1CC(=O)c1ccc(C#N)cc1 [Compound 6, 4-(2-(2-Isopropyl-1H-benzo[d]imidazol-1-yl)acetyl)benzonitrile]
10% | 166.00 ± 19.50 ng/mL | Cc1ccc(S(=O)(=O)NC(=O)NNC(=O)Cn2c(C(C)C)nc3ccccc32)cc1 [Compound 24a, 2-(2-(2-Isopropyl-1H-benzo[d]imidazol-1-yl)acetyl)-N-tosylhydrazine-1-carboxamide]
78% | 41.10 ± 3.88 ng/mL | COc1ccc(OC)c(/C=N/NC(=O)Cn2c(C(C)C)nc3ccccc32)c1 [Compound 13f]
5.5% | 175.00 ± 15.65 ng/mL | CC(C)c1nc2ccccc2n1CC(=O)N/N=C/c1ccccc1Cl [Compound 13a, (E)-N′-(2-Chlorobenzylidene)-2-(2-isopropyl-1H-benzo[d]imidazol-1-yl)acetohydrazide]
6% | 173.80 ± 15.76 ng/mL | Cc1ccc(/C=N/NC(=O)Cn2c(C(C)C)nc3ccccc32)o1 [Compound 13h, (E)-2-(2-Isopropyl-1H-benzo[d]imidazol-1-yl)-N′-((5-methylfuran-2-yl)methylene)acetohydrazide]
61% | 72.60 ± 9.14 ng/mL | C/C(=N\NC(=O)Cn1c(C(C)C)nc2ccccc21)c1ccccc1C [Compound 14b, (E)-2-(2-Isopropyl-1H-benzo[d]imidazol-1-yl)-N′-(1-(o-tolyl)ethylidene)acetohydrazide]
9% | 169.12 ± 16.80 ng/mL | C/C(=N\NC(=O)Cn1c(C(C)C)nc2ccccc21)c1ccc(Br)c([N+](=O)[O-])c1 [Compound 14d, (E)-N′-(1-(4-Bromo-3-nitrophenyl)ethylidene)-2-(2-isopropyl-1H-benzo[d]imidazol-1-yl)acetohydrazide]
8% | 170.85 ± 20.38 ng/mL | CC(C)c1nc2ccccc2n1CC(=O)N/N=C/c1ccc(O)cc1 [Compound 13c, (E)-N′-(4-Hydroxybenzylidene)-2-(2-isopropyl-1H-benzo[d]imidazol-1-yl)acetohydrazide]
13% | 160.85 ± 15.70 ng/mL | COc1cc(C=O)ccc1OCCOc1ccc(/C=N/NC(=O)Cn2c(-c3ccc(C)o3)nc3ccccc32)cc1OC [Compound 22b, (E)-N′-(4-(2-(4-Formyl-2-methoxyphenoxy)ethoxy)-3-methoxybenzylidene)-2-(2-(5-methylfuran-2-yl)-1H-benzo[d]imidazol-1-yl)acetohydrazide]
– | 74.18 ± 9.70 ng/mL | COc1ccc(NC(=S)NNC(=O)Cn2c(-c3ccc(C)o3)nc3ccccc32)cc1 [Compound 24c, N-(4-Methoxyphenyl)-2-(2-(2-(5-methylfuran-2-yl)-1H-benzo[d]imidazol-1-yl)acetyl)hydrazine-1-carbothioamide]
4% | 177.11 ± 20.67 ng/mL | CC(C)c1nc2ccccc2n1CC(=O)N/N=C/c1cccc(O)c1 [Compound 13b, (E)-N′-(3-Hydroxybenzylidene)-2-(2-isopropyl-1H-benzo[d]imidazol-1-yl)acetohydrazide]

SMILES | % Inhibition of VEGFR-2 in HepG2 Cell Line | Amount of VEGFR-2
Cc1ccc(-c2nc3ccccc3n2CC(=O)N/N=C/c2ccc(OCc3ccccc3)cc2)o1 [Compound 17d, (E)-N′-(4-(Benzyloxy)benzylidene)-2-(2-(5-methylfuran-2-yl)-1H-benzo[d]imidazol-1-yl)acetohydrazide] | 56% | 81.70 ± 9.16 ng/mL
Cc1ccc(-c2nc3ccccc3n2CC(=O)N/N=C/c2cccc(OCc3ccccc3)c2)o1 [Compound 17b, (E)-N′-(3-(Benzyloxy)benzylidene)-2-(2-(5-methylfuran-2-yl)-1H-benzo[d]imidazol-1-yl)acetohydrazide] | 78% | 40.12 ± 5.70 ng/mL
CC(C)c1nc2ccccc2n1CC(=O)N/N=C/c1ccc(OCc2ccccc2)cc1 [Compound 17c, (E)-N′-(4-(Benzyloxy)benzylidene)-2-(2-isopropyl-1H-benzo[d]imidazol-1-yl)acetohydrazide] | 64% | 66.13 ± 9.11 ng/mL
C/C(=N\NC(=O)Cn1c(C(C)C)nc2ccccc21)c1ccccc1 [Compound 14a, (E)-2-(2-Isopropyl-1H-benzo[d]imidazol-1-yl)-N′-(1-phenylethylidene)acetohydrazide] | 51% | 90.00 ± 8.65 ng/mL
COc1cc(/C=N/NC(=O)Cn2c(C(C)C)nc3ccccc32)ccc1OCc1ccccc1 [Compound 17e, (E)-N′-(4-(Benzyloxy)-3-methoxybenzylidene)-2-(2-isopropyl-1H-benzo[d]imidazol-1-yl)acetohydrazide] | 67% | 61.86 ± 7.85 ng/mL
CC(C)c1nc2ccccc2n1CC(=O)N/N=C/c1cccc(OCc2ccccc2)c1 [Compound 17a, (E)-N′-(3-(Benzyloxy)benzylidene)-2-(2-isopropyl-1H-benzo[d]imidazol-1-yl)acetohydrazide] | 82% | 34.00 ± 4.28 ng/mL
COc1cc(/C=N/NC(=O)Cn2c(-c3ccc(C)o3)nc3ccccc32)ccc1OCc1ccccc1 [Compound 17f, (E)-N′-(4-(Benzyloxy)-3-methoxybenzylidene)-2-(2-(5-methylfuran-2-yl)-1H-benzo[d]imidazol-1-yl)acetohydrazide] | 14% | 158.60 ± 19.35 ng/mL
